{
  "source": "paper PMC9911399",
  "about": "“Two distinct binding modes provide the RNA-binding protein RbFox with extraordinary sequence specificity”",
  "binders": {"B1": {"name": "ACGCGUC (DNA:RNA)", "RNA": "GGGAGACCGGAAUUCAGAUUGUCCACGCGUCUUAAAUCCCGUCGUAGCCACCA", "DNA 1": "CAATCTGAATTCCGGTCTCCC", "DNA 2": "TGGTGGCTACGACGGGATT"}, "B2": {"name": "ACCAUCC (DNA:RNA)", "RNA": "B1 RNA with G27C, C28A, G29U, U30C", "DNA 1": "CAATCTGAATTCCGGTCTCCC", "DNA 2": "TGGTGGCTACGACGGGATT"}, "B3": {"name": "CAUAAAC (DNA:RNA)", "RNA": "B1 RNA with A25C, C26A, G27U, C28A, G29A, U30A", "DNA 1": "CAATCTGAATTCCGGTCTCCC", "DNA 2": "TGGTGGCTACGACGGGATT"}, "B4": {"name": "AGCACCU (DNA:RNA)", "RNA": "B1 RNA with C26G, G27C, C28A, G29C, U30C, C31U", "DNA 1": "CAATCTGAATTCCGGTCTCCC", "DNA 2": "TGGTGGCTACGACGGGATT"}, "B5": {"name": "CCCUCGU (DNA:RNA)", "RNA": "B1 RNA with A25C, G27C, C28U, G29C, U30G, C31U", "DNA 1": "CAATCTGAATTCCGGTCTCCC", "DNA 2": "TGGTGGCTACGACGGGATT"}, "B6": {"name": "AAUACUA (DNA:RNA)", "RNA": "B1 RNA with C26A, G27U, C28A, G29C, C31A", "DNA 1": "CAATCTGAATTCCGGTCTCCC", "DNA 2": "TGGTGGCTACGACGGGATT"}, "B7": {"name": "CACCGUC (DNA:RNA)", "RNA": "B1 RNA with A25C, C26A, G27C", "DNA 1": "CAATCTGAATTCCGGTCTCCC", "DNA 2": "TGGTGGCTACGACGGGATT"}, "B8": {"name": "AUCAGCA (DNA:RNA)", "RNA": "B1 RNA with C26U, G27C, C28A, U30C, C31A", "DNA 1": "CAATCTGAATTCCGGTCTCCC", "DNA 2": "TGGTGGCTACGACGGGATT"}, "B9": {"name": "AGAGUAC (DNA:RNA)", "RNA": "B1 RNA with C26G, G27A, C28G, G29U, U30A", "DNA 1": "CAATCTGAATTCCGGTCTCCC", "DNA 2": "TGGTGGCTACGACGGGATT"}, "B10": {"name": "CCAGCCU (DNA:RNA)", "RNA": "B1 RNA with A25C, G27A, C28G, G29C, U30C, C31U", "DNA 1": "CAATCTGAATTCCGGTCTCCC", "DNA 2": "TGGTGGCTACGACGGGATT"}, "B11": {"name": "UACUAGG (DNA:RNA)", "RNA": "GGGAGACCGGAAUUCAGAUUGUCCUACUAGGUUAAAUCCCGUCGUAGCCACCA", "DNA 1": "CAATCTGAATTCCGGTCTCCC", "DNA 2": "TGGTGGCTACGACGGGATT"}, "B12": {"name": "GUUUACG (DNA:RNA)", "RNA": "B11 RNA with U25G, A26U, C27U, G30C", "DNA 1": "CAATCTGAATTCCGGTCTCCC", "DNA 2": "TGGTGGCTACGACGGGATT"}, "B13": {"name": "UCAAUUG (DNA:RNA)", "RNA": "B1 RNA with A25U, G27A, C28A, G29U, C31G", "DNA 1": "CAATCTGAATTCCGGTCTCCC", "DNA 2": "TGGTGGCTACGACGGGATT"}, "B14": {"name": "ACCAAAG (DNA:RNA)", "RNA": "B11 RNA with U25A, A26C, U28A, G30A", "DNA 1": "CAATCTGAATTCCGGTCTCCC", "DNA 2": "TGGTGGCTACGACGGGATT"}, "B15": {"name": "CUGCCGC (DNA:RNA)", "RNA": "B1 RNA with A25C, C26U, G29C, U30G", "DNA 1": "CAATCTGAATTCCGGTCTCCC", "DNA 2": "TGGTGGCTACGACGGGATT"}, "B16": {"name": "GAUGCUG (DNA:RNA)", "RNA": "B11 RNA with U25G, C27U, U28G, A29C, G30U", "DNA 1": "CAATCTGAATTCCGGTCTCCC", "DNA 2": "TGGTGGCTACGACGGGATT"}, "B17": {"name": "UACUUAG (DNA:RNA)", "RNA": "B11 RNA with A29U, G30A", "DNA 1": "CAATCTGAATTCCGGTCTCCC", "DNA 2": "TGGTGGCTACGACGGGATT"}, "B18": {"name": "GUAUACC (DNA:RNA)", "RNA": "B11 RNA with U25G, A26U, C27A, G30C, G31C", "DNA 1": "CAATCTGAATTCCGGTCTCCC", "DNA 2": "TGGTGGCTACGACGGGATT"}, "B19": {"name": "UUGAUCA (DNA:RNA)", "RNA": "B1 RNA with A25U, C26U, C28A, G29U, U30C, C31A", "DNA 1": "CAATCTGAATTCCGGTCTCCC", "DNA 2": "TGGTGGCTACGACGGGATT"}, "B20": {"name": "CAGGUUA (DNA:RNA)", "RNA": "B1 RNA with A25C, C26A, C28G, G29U, C31A", "DNA 1": "CAATCTGAATTCCGGTCTCCC", "DNA 2": "TGGTGGCTACGACGGGATT"}, "B21": {"name": "UGUCAAA (DNA:RNA)", "RNA": "B11 RNA with A26G, C27U, U28C, G30A, G31A", "DNA 1": "CAATCTGAATTCCGGTCTCCC", "DNA 2": "TGGTGGCTACGACGGGATT"}, "B22": {"name": "GCUUGGC (DNA:RNA)", "RNA": "B1 RNA with A25G, G27U, C28U, U30G", "DNA 1": "CAATCTGAATTCCGGTCTCCC", "DNA 2": "TGGTGGCTACGACGGGATT"}, "B23": {"name": "GGUGGGU (DNA:RNA)", "RNA": "B1 RNA with A25G, C26G, G27U, C28G, U30G, C31U", "DNA 1": "CAATCTGAATTCCGGTCTCCC", "DNA 2": "TGGTGGCTACGACGGGATT"}, "B24": {"name": "UGUUAAU (DNA:RNA)", "RNA": "B11 RNA with A26G, C27U, G30A, G31U", "DNA 1": "CAATCTGAATTCCGGTCTCCC", "DNA 2": "TGGTGGCTACGACGGGATT"}, "B25": {"name": "CGUACUC (DNA:RNA)", "RNA": "B1 RNA with A25C, C26G, G27U, C28A, G29C", "DNA 1": "CAATCTGAATTCCGGTCTCCC", "DNA 2": "TGGTGGCTACGACGGGATT"}, "B26": {"name": "ACACCUA (DNA:RNA)", "RNA": "B1 RNA with G27A, G29C, C31A", "DNA 1": "CAATCTGAATTCCGGTCTCCC", "DNA 2": "TGGTGGCTACGACGGGATT"}, "B27": {"name": "CGAAGGG (DNA:RNA)", "RNA": "B11 RNA with U25C, A26G, C27A, U28A, A29G", "DNA 1": "CAATCTGAATTCCGGTCTCCC", "DNA 2": "TGGTGGCTACGACGGGATT"}, "B28": {"name": "CCCAUGA (DNA:RNA)", "RNA": "B11 RNA with U25C, A26C, U28A, A29U, G31A", "DNA 1": "CAATCTGAATTCCGGTCTCCC", "DNA 2": "TGGTGGCTACGACGGGATT"}, "B29": {"name": "CCCUUAC (DNA:RNA)", "RNA": "B1 RNA with A25C, G27C, C28U, G29U, U30A", "DNA 1": "CAATCTGAATTCCGGTCTCCC", "DNA 2": "TGGTGGCTACGACGGGATT"}, "B30": {"name": "AUUACAG (DNA:RNA)", "RNA": "B1 RNA with C26U, G27U, C28A, G29C, U30A, C31G", "DNA 1": "CAATCTGAATTCCGGTCTCCC", "DNA 2": "TGGTGGCTACGACGGGATT"}, "B31": {"name": "GGACCUC (DNA:RNA)", "RNA": "B1 RNA with A25G, C26G, G27A, G29C", "DNA 1": "CAATCTGAATTCCGGTCTCCC", "DNA 2": "TGGTGGCTACGACGGGATT"}},
  "note": "Residue numbers refer to the chain shown, from its start. The list shows a part of the results.",
  "data": [
    {"target": "T1, RBFOX1 RRM (Homo sapiens, UniProt Q9NWB1 109-208)", "T1 sequence": "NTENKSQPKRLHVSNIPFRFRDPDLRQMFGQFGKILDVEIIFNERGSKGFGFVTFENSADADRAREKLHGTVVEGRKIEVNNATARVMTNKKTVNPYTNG", "assay": "EMSA; HiTS-Eq, 1 nM pool, 10 min; buffer printed only for the single-RNA assays: 10 mM Tris pH 7.5, 150 mM NaCl, 3.4 mM EDTA, 0.001% NP-40, 30 C", "conditions": "tags: His6 N-terminal (pET28a); label: 5' 32P", "outline": "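Purified RbFox RRM, wild type or mutant, was incubated for 10 min in 50 µL with 1 nM of a 5′-radiolabelled RNA pool carrying 7 randomized nucleotides, whose flanks were annealed to DNA oligonucleotides, over a series of increasing protein concentrations. Unbound RNA was resolved on 8% native PAGE, cut out, reverse-transcribed, barcoded by PCR and sequenced on an Illumina HiSeq 2500. Relative association constants were derived from changes in read counts for each RNA species versus the control reaction and normalised to the cognate motif.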", "values": [
      {"binder": "B1", "binding signal": "0.00696 KA relative to UGCAUGU"},
      {"binder": "B2", "binding signal": "0.00195 KA relative to UGCAUGU"},
      {"binder": "B3", "binding signal": "0.000642 KA relative to UGCAUGU"},
      {"binder": "B4", "binding signal": "0.00418 KA relative to UGCAUGU"},
      {"binder": "B5", "binding signal": "0.00414 KA relative to UGCAUGU"},
      {"binder": "B6", "binding signal": "0.000387 KA relative to UGCAUGU"},
      {"binder": "B7", "binding signal": "0.00282 KA relative to UGCAUGU"},
      {"binder": "B8", "binding signal": "0.00582 KA relative to UGCAUGU"},
      {"binder": "B9", "binding signal": "0.0116 KA relative to UGCAUGU"},
      {"binder": "B10", "binding signal": "0.00672 KA relative to UGCAUGU"},
      {"binder": "B11", "binding signal": "0.00489 KA relative to UGCAUGU"},
      {"binder": "B12", "binding signal": "0.0137 KA relative to UGCAUGU"},
      {"binder": "B13", "binding signal": "0.0116 KA relative to UGCAUGU"},
      {"binder": "B14", "binding signal": "0.00226 KA relative to UGCAUGU"},
      {"binder": "B15", "binding signal": "0.0168 KA relative to UGCAUGU"},
      {"binder": "B16", "binding signal": "0.0203 KA relative to UGCAUGU"},
      {"binder": "B17", "binding signal": "0.0146 KA relative to UGCAUGU"},
      {"binder": "B18", "binding signal": "0.0043 KA relative to UGCAUGU"},
      {"binder": "B19", "binding signal": "0.0152 KA relative to UGCAUGU"},
      {"binder": "B20", "binding signal": "0.00641 KA relative to UGCAUGU"},
      {"binder": "B21", "binding signal": "0.00774 KA relative to UGCAUGU"},
      {"binder": "B22", "binding signal": "0.0234 KA relative to UGCAUGU"},
      {"binder": "B23", "binding signal": "0.0186 KA relative to UGCAUGU"},
      {"binder": "B24", "binding signal": "0.0111 KA relative to UGCAUGU"},
      {"binder": "B25", "binding signal": "0.00584 KA relative to UGCAUGU"},
      {"binder": "B26", "binding signal": "0.0018 KA relative to UGCAUGU"},
      {"binder": "B27", "binding signal": "0.00457 KA relative to UGCAUGU"},
      {"binder": "B28", "binding signal": "0.0135 KA relative to UGCAUGU"},
      {"binder": "B29", "binding signal": "0.00236 KA relative to UGCAUGU"},
      {"binder": "B30", "binding signal": "0.0056 KA relative to UGCAUGU"},
      {"binder": "B31", "binding signal": "0.00453 KA relative to UGCAUGU"}
    ]}
  ]
}
